Experimental findings from the supplement of paper PMC7125110 are described below.

The chains are these.
B1: glmS ribozyme (parent)
chain: AUAAAAGCGCCAGAACUACAGAAAUGUAGUUGACGAGGAGGAGGUUUAUCGAAUUUUCGGCGGAUGCCUCCAAA

What all share (conditions): with glucosamine-6-phosphate
Variants of B1 are the subject of data set [1]. In words: self-cleavage kobs at 40 uM GlcN6P; higher = faster cleavage; RNA array. Put shortly:
(§1)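 E. coli RNA polymerase transcribed barcoded ribozyme variants in situ on sequenced MiSeq chips, which were tracked via a hybridised Cy3 probe at 37 °C. Tiles were imaged over ~14 h after glucosamine-6-phosphate (40 μM to 10 mM) in HEPES/KCl/Mg(OAc)2 buffer was flowed in. Normalised per-tile medians were fit to one- or two-exponential decays for kobs, and kcat and KM came from weighted Michaelis–Menten fits.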

Variants of B1 are the subject of data set [2]. In words: self-cleavage kobs at 640 uM GlcN6P; higher = faster cleavage; RNA array. The gist of the method: as §1
In data set [3] the parent is B1. In words: self-cleavage kobs at 2500 uM GlcN6P; higher = faster cleavage; RNA array. The gist of the method: as §1
Variants of B1 are the subject of data set [4]. In words: self-cleavage kobs at 10000 uM GlcN6P; higher = faster cleavage; RNA array. The gist of the method: as §1
In data set [5] the parent is B1. In words: self-cleavage kobs at 160 uM GlcN6P; higher = faster cleavage; RNA array. Put shortly:
as §1

Variants at the floor of the assay are shown more often than the library holds them.

As for AUAAAUGCGCCAGAAAUACAGAAAUGUAGUUGACGAGGAGGAGGUUUAUCGAAUUUUCGGCGGAUGCCUCCAAA [A6U C16A], the “self-cleavage kobs at 40 uM GlcN6P” value with glucosamine-6-phosphate [1] was < 1e-05 s⁻¹. Also, the “self-cleavage kobs at 640 uM GlcN6P” value in the data set with glucosamine-6-phosphate [2] is < 1e-05 s⁻¹.

On to AUAAAUGCGCCAGAACUACAGAAAUGUAAUUGACGAGGAGGAGGUUUAUCGAAUUUUCGGUGGAUGCCUCCAAA [A6U G29A C61U], for which the “self-cleavage kobs at 40 uM GlcN6P” value in the data set with glucosamine-6-phosphate [1] is < 1e-05 s⁻¹. The “self-cleavage kobs at 640 uM GlcN6P” value with glucosamine-6-phosphate [2] was < 1e-05 s⁻¹. The “self-cleavage kobs at 2500 uM GlcN6P” value with glucosamine-6-phosphate [3] is < 1e-05 s⁻¹. Further, the “self-cleavage kobs at 10000 uM GlcN6P” value with glucosamine-6-phosphate [4] is < 1e-05 s⁻¹.

For AUAAAUGAGCCAGAACUACAGAAAUGUAGUUGACGAGGAGGAGGUUUAUCGAAUUUUCCGCGGAGGCCUCCAAA [A6U C8A G59C U65G], the “self-cleavage kobs at 40 uM GlcN6P” value with glucosamine-6-phosphate [1] is < 1e-05 s⁻¹.

AUAAAUGCGCCAGAACUACAGAAAUGUAGUUGACGAGGAGAUGGUUUAUCGAAUUUUCGGCGGAUGCCUCCAAA [A6U G41A A42U]: the “self-cleavage kobs at 40 uM GlcN6P” value with glucosamine-6-phosphate [1] is < 1e-05 s⁻¹.

As to AUAAAUGCGCCACAACUACAGAAAUGUAGUUGACGAGGUGGAGGUGUUUCGAAUAUUCGGUGGAUGCCUCCAAA [A6U G13C A39U U46G A48U U55A C61U], the “self-cleavage kobs at 40 uM GlcN6P” value with glucosamine-6-phosphate [1] was < 1e-05 s⁻¹. In addition, in the data set with glucosamine-6-phosphate [4], the “self-cleavage kobs at 10000 uM GlcN6P” value is < 1e-05 s⁻¹.

Regarding AUAAAUGCGCCAGAACUACAGAAAUGUAGUUGACGAGGAGGAUAUUUAUCGAUUUUUCGGCGGAUGCCUCCAAA [A6U G43U G44A A53U], the “self-cleavage kobs at 40 uM GlcN6P” value with glucosamine-6-phosphate [1] is < 1e-05 s⁻¹.

With AUAAAUGCGCCAGAAUUACAGAAAUGUAGUUGACGAGGAGGAGGUUUAUCGAAUUUUCGGCGGUUGCCUCCAAA [A6U C16U A64U], the “self-cleavage kobs at 40 uM GlcN6P” value with glucosamine-6-phosphate [1] was < 1e-05 s⁻¹.

On to AUAAAUGCGACAGAACUACAGAAAUGUAGUUGACGAGGAGGAGGUUUAUCGAAUUUUCGGCGGAUGCCUCCAAA [A6U C10A], for which the “self-cleavage kobs at 40 uM GlcN6P” value with glucosamine-6-phosphate [1] was < 1e-05 s⁻¹. Also, the “self-cleavage kobs at 640 uM GlcN6P” value in the data set with glucosamine-6-phosphate [2] is < 1e-05 s⁻¹. The “self-cleavage kobs at 160 uM GlcN6P” value with glucosamine-6-phosphate [5] was < 1e-05 s⁻¹.

On to AUAAAUGCGCAAGAACUACAGAAAUGUAGGUGACGAGGAGGAGGUUUAUCGAAUUUUCGGCGAAUAGCUCCAAA [A6U C11A U30G G63A G66A C67G], for which the “self-cleavage kobs at 40 uM GlcN6P” value with glucosamine-6-phosphate [1] was < 1e-05 s⁻¹.

Consider AUAAAUGCGCCAGAACUACAGAAAUGUAGUUGACGAGGAGGAGAUUUAUCGAAUUUUCGGCGGAUGCCUCCAAA [A6U G44A], for which the “self-cleavage kobs at 40 uM GlcN6P” value in the data set with glucosamine-6-phosphate [1] is < 1e-05 s⁻¹. For the same variant, the “self-cleavage kobs at 640 uM GlcN6P” value with glucosamine-6-phosphate [2] is < 1e-05 s⁻¹. In addition, the “self-cleavage kobs at 160 uM GlcN6P” value with glucosamine-6-phosphate [5] was < 1e-05 s⁻¹. For the same variant, the “self-cleavage kobs at 2500 uM GlcN6P” value with glucosamine-6-phosphate [3] was < 1e-05 s⁻¹. Further, the “self-cleavage kobs at 10000 uM GlcN6P” value in the data set with glucosamine-6-phosphate [4] is < 1e-05 s⁻¹.

With AUAAAUGCGCCAGAACUACAGAAAUGUAGUUGACGAGGAGGAGGUUUAUCGAAUUUUCGGUGGAUGCCUCCAAA [A6U C61U], the “self-cleavage kobs at 40 uM GlcN6P” value in the data set with glucosamine-6-phosphate [1] is < 1e-05 s⁻¹. The “self-cleavage kobs at 640 uM GlcN6P” value with glucosamine-6-phosphate [2] was < 1e-05 s⁻¹. In addition, the “self-cleavage kobs at 2500 uM GlcN6P” value with glucosamine-6-phosphate [3] was < 1e-05 s⁻¹. Also, the “self-cleavage kobs at 10000 uM GlcN6P” value with glucosamine-6-phosphate [4] is < 1e-05 s⁻¹.

Take AUAAAUCCGCCAGAACUACAGAAAUGUAGUGGACGAGGAGGACGGUUAUCGAAUUUUCGGCGGAUGCCUCCAAA [A6U G7C U31G G43C U45G]: in the data set with glucosamine-6-phosphate [1], the “self-cleavage kobs at 40 uM GlcN6P” value is < 1e-05 s⁻¹.

As for AUAAAUCCGCCAGAACUACAGAAAUGUAGUUGACGAGGAGGAGGUUUAUUGAAUUUUCGGCGGAUGCCUCCAAA [A6U G7C C50U], in the data set with glucosamine-6-phosphate [1], the “self-cleavage kobs at 40 uM GlcN6P” value was < 1e-05 s⁻¹. Also, the “self-cleavage kobs at 10000 uM GlcN6P” value with glucosamine-6-phosphate [4] was < 1e-05 s⁻¹.

Regarding AUAAAUGCCCCAGAACUACAGAAAUGUAGUUGACGAGGAGGAGGUUUAUCGAAUUUUCGGCGGAUGCCUCCAAA [A6U G9C], the “self-cleavage kobs at 40 uM GlcN6P” value in the data set with glucosamine-6-phosphate [1] was < 1e-05 s⁻¹.

For AUAAAUGCGCCAUAAUUACAGAAAUGUAGUUGACGGGGAGGAGGUUUAUCGAAUUUUCGGCGGAUGCCUCCAAA [A6U G13U C16U A36G], the “self-cleavage kobs at 40 uM GlcN6P” value in the data set with glucosamine-6-phosphate [1] is < 1e-05 s⁻¹. In addition, in the data set with glucosamine-6-phosphate [4], the “self-cleavage kobs at 10000 uM GlcN6P” value was < 1e-05 s⁻¹.

AUAAAUGCGCCAGAACUACAGAAAUGUAGUUGACGAGGAGGAGGUUUAUCGAAUUUUCCGCGGAUGCCUCCAAA [A6U G59C]: the “self-cleavage kobs at 40 uM GlcN6P” value with glucosamine-6-phosphate [1] is < 1e-05 s⁻¹. Also, the “self-cleavage kobs at 640 uM GlcN6P” value with glucosamine-6-phosphate [2] is < 1e-05 s⁻¹. Besides, the “self-cleavage kobs at 160 uM GlcN6P” value in the data set with glucosamine-6-phosphate [5] was < 1e-05 s⁻¹. Further, in the data set with glucosamine-6-phosphate [3], the “self-cleavage kobs at 2500 uM GlcN6P” value is < 1e-05 s⁻¹. Moreover, the “self-cleavage kobs at 10000 uM GlcN6P” value with glucosamine-6-phosphate [4] is < 1e-05 s⁻¹.

As to AUAAAUUCGCCAGAACUACAGAAAUGUAGUUGUCGAUGAGGAGCUUUAGCGAAUUUUCGGCGGUUGCCUCCAAA [A6U G7U A33U G37U G44C U49G A64U], the “self-cleavage kobs at 40 uM GlcN6P” value with glucosamine-6-phosphate [1] is < 1e-05 s⁻¹.

As to AUAAAUCGGCCAGAACUACAGAAAUGUAGUUGACGAGUAGGAGGUUUAUCGAAUUUUCGGCGGAUGCCUCCAAA [A6U G7C C8G G38U], the “self-cleavage kobs at 40 uM GlcN6P” value with glucosamine-6-phosphate [1] is < 1e-05 s⁻¹.

In the case of AUAAAUGCGCCAGAACUACAGAAAUGUAGUUCACGAGGAGGAGGUUUAUCGUAUUUUCGGCGGAUGCCUCCAAA [A6U G32C A52U], the “self-cleavage kobs at 40 uM GlcN6P” value in the data set with glucosamine-6-phosphate [1] was < 1e-05 s⁻¹. Further, in the data set with glucosamine-6-phosphate [4], the “self-cleavage kobs at 10000 uM GlcN6P” value is < 1e-05 s⁻¹.
